{"source": "PubChem BioAssay AID1466", "about": "(National Center for Advancing Translational Sciences (NCATS), 2008)", "note": "The whole screen tested about 200,000 compounds, of which about 10 (0.005%) were called active. This list was built around the results that the source calls inconclusive (neither active nor inactive); the mix of calls is not that of the screen. The call rests on the fitted dose curve; in most records, active means well fitted inhibition curve with a large enough effect; inconclusive means small, poorly fitted or top-dose-only effect, or effect the other way, or another doubt; inactive means no such curve, though single readings can be large or run the other way. No potency is given beside an inconclusive call; the fits are too rough. Potency means the concentration at half of the fitted maximal effect; tags describe the fitted curve by direction and shape.", "data": [{"molecular_target": "Lysosomal alpha-glucosidase (Homo sapiens) (UniProt P10253)", "assay": "qHTS Assay for Inhibitors of Human alpha-Glucosidase as a Potential Chaperone Treatment of Pompe Disease;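 on activity change, negative = inhibition: plate controls were uninhibited enzyme wells for no effect and no-enzyme background for full effect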", "details": "purified human GAA, 4-MU-alpha-glucoside fluorescence; activity change, negative = inhibition: at 76.9 µM (top of the series) unless noted", "procedure,_shortened": "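Read-out is 4-methylumbelliferone fluorescence (Ex 365/Em 440 nm) after NaOH/glycine stop at pH 10. Enzyme 4 nM, substrate 400 uM, pH 5.0 citrate buffer, 20 min room temperature; AC50 from Hill-equation concentration-response.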", "values": [{"smiles": "O=C(CCN1C(=O)/C(=C/c2cccs2)SC1=S)NNC(=O)c1cccc(O)c1", "Potency": "inconclusive [inhibitor, single point]"}, {"smiles": "Cc1ccc(C)c(-n2nnnc2SCC(=O)Nc2cccc(-c3nnc4n3CCCCC4)c2)c1", "Potency": "inconclusive [inhibitor, single point]"}, {"smiles": "COC(=O)Cc1[nH]n(-c2nc3ccccc3s2)c(=O)c1C(C)=Nc1ccc(C)cc1", "activity change, negative = inhibition": "inconclusive: 11.3% [activator]"}, {"smiles": "COc1ccc(-n2c3c(cc(C(=O)NNc4ccccc4)c2=O)C(=O)CC(C)(C)C3)cc1", "Potency": "inconclusive [inhibitor, single point]"}, {"smiles": "O=C(O)CCC(=O)Nc1cccc2cccnc12", "activity change, negative = inhibition": "inconclusive: 16.3% [activator]"}, {"smiles": "CC(=O)c1cccc(NC(=S)NCc2ccco2)c1", "activity change, negative = inhibition": "inconclusive: 14.9% [activator]"}, {"smiles": "CCOc1ccc(N=c2oc3cc(O)ccc3cc2C(=O)NCC2CCCO2)cc1", "note": "(centres undefined)", "Potency": "inconclusive [activator, partial curve]"}, {"smiles": "Cc1cc(=O)oc2cc(OC(=O)c3ccccc3)ccc12", "Potency": "inconclusive [activator, partial curve]"}, {"smiles": "O=C(Nc1ccc(CCC(=O)N2CCCC2)cc1)c1ncn[nH]1", "Potency": "inconclusive [inhibitor, partial curve]"}, {"smiles": "CCOc1ccccc1N1CCN(S(=O)(=O)c2cccs2)CC1", "Potency": "inconclusive [inhibitor, single point]"}, {"smiles": "COc1ccc(C2CC(=O)C3=C(C2)Nc2ncnn2C3c2ccccc2C)c(OC)c1", "note": "(centres undefined)", "Potency": "inconclusive [activator, single point]"}, {"smiles": "S=C(NC1CCCCC1)N1CCN(C2CCCCC2)CC1", "Potency": "inactive"}, {"smiles": "C=CCNC(=O)CN(c1ccc(OC)cc1OC)S(C)(=O)=O", "Potency": "inconclusive [inhibitor, partial curve, poor fit]"}, {"smiles": "Cc1ccc(OC(=O)c2c(C)nn(-c3ccccc3)c2C)cc1", "Potency": "inactive"}, {"smiles": "Cc1cccn2c(=O)c(C=Nc3ccccc3)c(NCCO)nc12", "activity change, negative = inhibition": "inconclusive: 18.1% [activator]"}, {"smiles": "COc1ccc(/C(C)=N/NC(=S)NCc2ccco2)cc1", "Potency": "inconclusive [inhibitor, partial curve]"}, {"smiles": "CN1C[C@@H]2C[C@@H](c3ccc(C#CC(C)(C)O)s3)N3CCC[C@@]23C1=O", "activity change, negative = inhibition": "inconclusive: 16.2% [activator]"}, {"smiles": "COc1ccccc1NC(=O)Cn1c(C)cc(=O)c2cccc(OC)c21", "Potency": "inconclusive [inhibitor, single point]"}, {"smiles": "c1ccc(-c2ccnc3ncnn23)nc1", "activity change, negative = inhibition": "inconclusive: 15.7% [activator]"}]}]}
